Source: the supplement of paper PMC10338343
± gives the standard deviation. Only a part is listed here, and it is no random draw.

These sequences were tested on MIWI (PIWIL1) piRISC loaded with piRNA #1 (30 nt) (assay: pre-steady-state target cleavage rate (min^-1); MIWI and MILI are mouse PIWI proteins and EfPiwi is from a freshwater sponge; tags in brackets are library labels; higher = faster piRNA-guided slicing of the target). Conditions: guide: piRNA #1 5'p-UGAGGUAGUAGGUUGUAUAGUAUCCAGAGG; auxiliary factor: 500 nM mouse GTSF1.
Procedure, shortened: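 A burst-and-steady-state fit was used to obtain the pre-steady-state cleavage rate. The input data were sequencing reads of uncleaved targets, normalised to depth and to weakly complementary targets, from a […] transcribed, DNA-blocked target RNA library mixed with 1 nM active affinity-purified piRISC holding one synthetic guide, with or without 500 nM GTSF1 partner protein, in HEPES–potassium acetate buffer at 33 °C for 0–8 or 0–960 min. Three trials were pooled and k3 was capped at 0.0001 min^-1.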
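Also: 1 nM active piRISC with 0.1 nM target library at 33 °C single turnover.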

Going from GGACUGGAUACUAUUCAACCUACUACCUGA to CCUGUGGAUACUAUAGAACCUACUACCUCA, the “pre-steady-state target cleavage rate” value rises from 0.49 ± 0.099 to 1.48 ± 0.088.

First: GGACAGGAUACUAUACAACCUACUACCUGA
Second: GGAGACCUAUGAUAUGUACCUACAUGGAGA [g8:g13:cont:t1A]
The “pre-steady-state target cleavage rate” value of the first is higher: 0.571 ± 0.098 for the first, less than 0.0001 for the second.

Compared with GGAGACCUUUCUAUACAACCUACUACGUCA, GGAGACCUAACUAUACAACCUACUUACCUCA is higher in “pre-steady-state target cleavage rate” value: 0.533 ± 0.04 for the first, 0.992 ± 0.067 for the second.

Going from GGAGACCUAACUAUACACCCUACUACCUCA to GGAGACCUAUCUAUACAACCUAUCUACCUCA, the “pre-steady-state target cleavage rate” value falls from 0.745 ± 0.07 to 0.0103 ± 0.0025.

First: GGAGUGGAUACUAUACAACCUACUACAUCA
Second: GGAGACCUAACUAUUCAACGUACUACCUCA
The “pre-steady-state target cleavage rate” value of the first is higher: 0.318 ± 0.034 for the first, 0.0402 ± 0.014 for the second.

Going from GGAGAGGAUACUGUACAACCUACUACCUCA to GGAGACCUAUGAUAUCAACCUACAACCACA, the “pre-steady-state target cleavage rate” value falls from 0.682 ± 0.041 to less than 0.0001.

Compared with GGAGUGGAUACUAUACAACCUUGAACCUCA, GGAGUGGAUACUAUACUUGCUACUACCUCA is higher in “pre-steady-state target cleavage rate” value: 0.00314 ± 0.002 for the first, 0.0421 ± 0.0077 for the second.

Compared with GGAGACCUAUCUAUACAACCUACUACCUUA, GGAGACCAUACUAUAGAACCUAGUACCUCA is lower in “pre-steady-state target cleavage rate” value: 0.905 ± 0.069 for the first, 0.00382 ± 0.0021 for the second.

First: CCUCUGGAUUCAAUACAACCUACUACCUCA
Second: GGACUGGAUACUAUACUACCUACUACCUGA
The “pre-steady-state target cleavage rate” value of the first is higher: 0.788 ± 0.091 for the first, 0.5 ± 0.096 for the second.

First: GGAGACGAUACAAUACAACCAACUACCUCA
Second: GGAGUGGAUUCUAUACAACCUACAACCUCA
The “pre-steady-state target cleavage rate” value of the first is lower: 0.0918 ± 0.008 for the first, 0.453 ± 0.046 for the second.

First: GGACUGGAUACUAUUCAACCUACUACCACA
Second: GGACUGGAUACUAUGCAACCUACUACCUCA
The “pre-steady-state target cleavage rate” value of the first is lower: 0.421 ± 0.051 for the first, 1.78 ± 0.12 for the second.

Going from GGAGACCUAUCUUUACAACGUACUACCUCA to GGAGACCUUACUAUACAACCUACUCACCUCA, the “pre-steady-state target cleavage rate” value rises from 0.00639 ± 0.0027 to 0.792 ± 0.062.
